According to PubChem BioAssay AID686978 (National Center for Advancing Translational Sciences (NCATS), 2013):
Screen size: about 420,000 compounds; about 64,000 (15%) were called active. This list was built around the results that the source calls inconclusive (neither active nor inactive); the mix of calls is not that of the screen. The call rests on the fitted dose curve; in most records, active means well fitted inhibition curve with a large enough effect; inconclusive means small, poorly fitted or top-dose-only effect; inactive means flat fitted curve, though single readings scatter. No potency is given beside an inconclusive call; the fits are too rough.

test: qHTS for Inhibitors of human tyrosyl-DNA phosphodiesterase 1 (TDP1): qHTS in cells in absence of CPT; details: DT40 Tdp1-/- hTDP1 cells, no CPT, ATP luminescence, 48 h; activity change, negative = growth inhibition: at 46.2 µM (top of the series) unless noted; further: nearly all actives have a fitted effect of over 55% in size
In short: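 Camptothecin absent (DMSO only). Human TDP1-complemented DT40 knockout cells, 400 cells/well, 37 °C for minimum 48 hr; ATP measured via CellTiter-Glo, 30 min dark incubation, luminescence.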
On the % scale 0 is the no-effect control and ±100 the full control effect; potency means the concentration at half of the fitted maximal effect; tags describe the fitted curve by direction and shape.

| Structure (SMILES) | Potency | activity change, negative = growth inhibition |
| --- | --- | --- |
| O=C(c1cc(F)ccc1F)C1CCCN(Cc2cccn2-c2ccccn2)C1 (stereo not drawn) | inconclusive [inhibitor, single point] |  |
| O=C(CSc1ncc2c(n1)-c1cc(Cl)ccc1N(Cc1ccccc1F)S2(=O)=O)Nc1cccc(C(F)(F)F)c1 | inconclusive [inhibitor, single point] |  |
| COc1ccc(S(=O)(=O)N2CCN(C)CC2c2ccccc2)cc1 (stereo not drawn) | inactive |  |
| Cc1cc(C)cc(C(=O)Nc2nnc3n2CCS3)c1 | inconclusive [inhibitor, single point] |  |
| N#Cc1nc(-c2ccc(OCc3ccc(Cl)cc3)cc2)oc1N1CCC(C(N)=O)CC1 | inactive |  |
| CC1(C)C2CCC1(CS(=O)(=O)NCc1ccc(C(F)(F)F)cc1)C(=O)C2 (stereo not drawn) | active: 11.6 µM |  |
| CCOC(=O)c1ccc(NC(=O)CSc2nccn2Cc2ccc(OC)cc2)cc1 | inconclusive [inhibitor, single point] |  |
| CC(C)(CNC(=O)c1cccc(S(=O)(=O)Nc2ccc(SC(F)F)cc2)c1)N1CCOCC1 | inactive |  |
| Cc1cc2ccccc2n2c(SCC(=O)Nc3cccc(C(F)(F)F)c3)nnc12 | inconclusive [inhibitor, single point] |  |
| CC(C)C(=O)N1CCN(c2ccc(NC(=O)COc3ccccc3[N+](=O)[O-])cc2)CC1 | active: 18.4 µM |  |
| CC(=NNC(=O)c1ccncc1)c1ccc(O)cc1O | active: 7.31 µM |  |
| COc1ccc(C)cc1Nc1ncnc2c1nnn2Cc1ccccc1Cl | inconclusive [inhibitor, single point] |  |
| N#CCCN(CCC#N)C(=S)NC1CC2C=CC1C2 (stereo not drawn) | inactive |  |
| COc1ccccc1C1CN(c2ccccc2)N=C1c1cccs1 (stereo not drawn) | inconclusive [inhibitor, single point] |  |
| CC(C)Nc1ccc(-c2nc(-c3ccccn3)no2)cc1[N+](=O)[O-] | inactive |  |
| CC(C)c1ccccc1NC(=O)c1ccc2ncsc2c1 | inactive |  |
| CCOc1cc(C(=O)NN=C2CCCC2)cc(OCC)c1OCC | inactive |  |
| Cc1ccc(C)c(OCCC(=O)OCC(=O)c2c(N)n(C)c(=O)n(C)c2=O)c1 | inactive |  |
| O/N=C/c1cccn1-c1ccc(O)cc1 | inactive |  |
| O=C(Cn1nc(Cl)nc1Cl)c1ccc2c(c1)OCCO2 | active: 13 µM |  |
| Cc1nc(C#N)c(N/N=C/c2c(F)cccc2Cl)o1 |  | inconclusive: -30.3% [inhibitor] |
| O=C(NC1CCN(S(=O)(=O)c2ccccc2F)CC1)c1cccnc1 | inactive |  |
| Cc1c(C(=O)N2CCOCC2)c(S(=O)(=O)Nc2ccc(OC(F)(F)F)cc2)c(C)n1C | inactive |  |
| CCN(CC)c1nc(-c2ccccc2Cl)c2cc(Br)ccc2n1 | inconclusive [inhibitor, single point] |  |
| Cc1cccc(CNC(=O)c2sc3ncnc(N(C)C4CCCCC4)c3c2C)c1 | active: 20.6 µM |  |

| Structure (SMILES) | Potency | activity change, negative = growth inhibition |
| --- | --- | --- |
| CN(Cc1c(C(=O)N/N=C/c2ccc(O)cc2)nnn1-c1nonc1N)C1CCCCC1 | inconclusive [inhibitor, single point] |  |
| COC(=O)[C@@]1(Cc2ccc(F)cc2)[C@H]2c3cc(C(=O)N(C)C)n(Cc4ccccn4)c3C[C@H]2CN1C(=O)c1ccccc1 | inconclusive [inhibitor, single point] |  |
| O=C(NCCCNC(=O)c1ccc(-c2cccc(Cl)c2)o1)c1cnccn1 | inconclusive [inhibitor, single point] |  |
| CCCNC(=O)C1(C)CCN1C(=O)c1ccccc1CCc1ccccc1 (stereo not drawn) | inconclusive [inhibitor, partial curve] |  |
| CCC(CO)NCc1ccc(OCC(=O)Nc2cccc(C(F)(F)F)c2)c(OC)c1 (stereo not drawn) | inconclusive [inhibitor, single point] |  |
| C=CCn1c(-c2cccnc2Cl)nc2cc(Cl)c(Cl)cc21 | inconclusive [inhibitor, partial curve] |  |
| CCc1nccn1CCC(=O)NC1CCCc2c1cnn2-c1ccc(F)cc1F (stereo not drawn) | inconclusive [inhibitor, partial curve, poor fit] |  |
| COCc1cc(C)nc(OCC(=O)N/N=C/c2cc(C)n(-c3c(C)cccc3C)c2C)c1C#N | inconclusive [inhibitor, single point] |  |
| CC1C(=O)Nc2ccc(S(=O)(=O)NCCc3ccc(Cl)cc3)cc2NC1=O (stereo not drawn) | inconclusive [inhibitor, partial curve] |  |
| O=S(=O)(c1ccc(-c2cnc(C3CC3)o2)cc1)N1CCN(c2cccc(Cl)c2)CC1 | active: 3.26 µM |  |
| Cc1cccc(S(=O)Cc2ccc(C(=O)NC3CCCCCC3)o2)c1 (stereo not drawn) | inconclusive [inhibitor, single point] |  |
| O=C(CC1C(=O)NCCN1Cc1ccc(F)cc1Cl)NCc1ccon1 (stereo not drawn) | inactive |  |
| COc1ccc(CCNC(=O)c2cc(C(C)C)on2)cc1OC | inconclusive [inhibitor, single point] |  |
| O=C(CCc1c[nH]c2ccccc12)N1CCN(c2ccc(F)cc2)CC1 | inconclusive [inhibitor, single point] |  |
| CCCc1cc(C(=O)Nc2ccc(F)c(Cl)c2)no1 |  | inconclusive: -28.6% [inhibitor] |
| Cc1ccccc1C(=O)OCC(=O)NCC1COc2ccccc2O1 (stereo not drawn) | active: 18.4 µM |  |
| O=C(c1cc(C(F)(F)F)cc(C(F)(F)F)c1)N1CCC2(CC1)CN(Cc1ccccc1)C2 | inconclusive [inhibitor, single point] |  |
| CCOc1ccccc1C(=O)Nc1cc(-c2ccc(C)cc2)no1 | inconclusive [inhibitor, single point] |  |
| O=C(CCSc1nnc2ccccn12)Nc1ccc2c(c1)OCO2 | inactive |  |
| O=C(CCC(=O)N1CCOc2ccccc21)NCCCc1ccccc1 | inactive |  |
| Cc1ccc(N/C(N)=N/c2nc(CSc3nnc(C)s3)cc(=O)[nH]2)c(C)c1 | active: 0.82 µM |  |
| COc1ccc(Cl)cc1NC(=O)CN(C)C(=O)c1cc(-c2cccs2)nn1-c1ccccc1 | active: 18.4 µM |  |
| Nc1ccn(C2C=CC(CO)O2)c(=O)n1 (stereo not drawn) | inactive |  |
| CCc1cc(C(N)=O)c(NC(=O)c2ccc(OC)cc2)s1 | inconclusive [inhibitor, partial curve, poor fit] |  |
| O=C(NCCNc1ccc([N+](=O)[O-])cc1C(F)(F)F)c1ccccc1F | inconclusive [inhibitor, single point] |  |

| Structure (SMILES) | Potency | activity change, negative = growth inhibition |
| --- | --- | --- |
| CCN1CCCC1CNC(=O)c1cnn(-c2nccc(-c3cc4ccccc4o3)n2)c1C (stereo not drawn) | inconclusive [inhibitor, single point] |  |
| Cc1ccc(C(=O)Nc2ccc(C(=O)OCc3cc(=O)n4c5c(sc4n3)CCCC5)cc2)cc1 | inactive |  |
| CN1CC2(C)OC(=O)C(Cl)=C2CC1c1ccccc1 (stereo not drawn) |  | inconclusive: -31.1% [inhibitor] |
| COc1ccc(-c2c[n+]3c(n2-c2c(C)n(C)n(-c4ccccc4)c2=O)CCCCC3)cc1 | inconclusive [inhibitor, single point] |  |
| COc1ccc(-c2noc(CCC(=O)NC3CCCC3)n2)cc1 | inconclusive [inhibitor, partial curve, poor fit] |  |
| CNC(=S)N/N=C/c1c(C)nn(-c2ccc(F)cc2)c1Cl | active: 14.6 µM |  |
| Cc1nnc(SCc2cnc(-c3ccccc3)o2)[nH]c1=O | inconclusive [inhibitor, single point] |  |
| CCOC(=O)CSc1nc2ccccc2n1C(=O)OCC | inactive |  |
| CCCCC(=O)NNC(=S)NC(=O)C(c1ccccc1)c1ccccc1 | inconclusive [inhibitor, single point] |  |
| Cc1ccc(NC(=S)N(Cc2ccc(Br)cc2)Cc2ccc(C(=O)O)cc2)cc1C | inconclusive [inhibitor, single point] |  |
| Cc1ccc(C)c(S(=O)(=O)N2CCN(C(=O)CCNS(=O)(=O)c3ccccc3)CC2)c1 | inconclusive [inhibitor, full curve, poor fit] |  |
| CC1CCN(S(=O)(=O)c2ccc(NC(=O)[C@@H]3CCCN3C(=O)c3cccs3)cc2)CC1 |  | inconclusive: -32.4% [inhibitor] |
| CC(=O)c1cccc(NC(=S)NC(=O)c2ccc(C)cc2)c1 | active: 18.4 µM |  |
| CCn1c(C(=O)N2CCCC(C(=O)NCCCc3ccccc3)C2)cc2sccc21 (stereo not drawn) | inconclusive [inhibitor, single point] |  |
| CC(C)NC(=O)CSc1ccccc1C(=O)N1CCN(S(=O)(=O)/C=C/c2ccccc2)CC1 | inconclusive [inhibitor, single point] |  |
| O=C(N/N=C/c1ccc(O)cc1)c1[nH]c2ccc(Br)cc2c1-c1ccccc1 | active: 2.91 µM |  |
| CC[N+](CC)(CCNC(=O)C(=O)NCC[N+](CC)(CC)Cc1ccccc1Cl)Cc1ccccc1Cl | inactive |  |
| O=C(Nc1ccc(CN2CCCCC2)cc1)Nc1ccccc1Cl | inconclusive [inhibitor, single point] |  |
| N=C(N)SCc1ccccn1 | inactive |  |
| Cc1cccc2c1N(CCCOc1ccc(C(C)(C)C)cc1)C(=O)C2=O | active: 18.4 µM |  |
| COc1ccc(-c2cc(-c3ccccc3)nc(N)n2)c(O)c1 | inconclusive [inhibitor, single point] |  |
| O=C(CCCSc1nc2ccccc2[nH]1)NCc1ccccc1F | active: 20.6 µM |  |
| COc1cc(Cl)ccc1OCc1cc(C(=O)N2CCN(C)C(=O)[C@@H]2C)no1 | inconclusive [inhibitor, partial curve] |  |
